Screen size: about 310,000 compounds; about 2,200 (0.71%) showed an effect of 50% or more. Effects have a minus sign here. This is one part of the list.
Target: human ether-à-go-go-related gene (hERG) potassium channel (human, UniProt Q12809)
Assay: primary screen, population patch clamp on CHO cells stably expressing hERG

human ether-à-go-go-related gene (hERG) potassium channel, sequence (Q12809 whole entry, looked up): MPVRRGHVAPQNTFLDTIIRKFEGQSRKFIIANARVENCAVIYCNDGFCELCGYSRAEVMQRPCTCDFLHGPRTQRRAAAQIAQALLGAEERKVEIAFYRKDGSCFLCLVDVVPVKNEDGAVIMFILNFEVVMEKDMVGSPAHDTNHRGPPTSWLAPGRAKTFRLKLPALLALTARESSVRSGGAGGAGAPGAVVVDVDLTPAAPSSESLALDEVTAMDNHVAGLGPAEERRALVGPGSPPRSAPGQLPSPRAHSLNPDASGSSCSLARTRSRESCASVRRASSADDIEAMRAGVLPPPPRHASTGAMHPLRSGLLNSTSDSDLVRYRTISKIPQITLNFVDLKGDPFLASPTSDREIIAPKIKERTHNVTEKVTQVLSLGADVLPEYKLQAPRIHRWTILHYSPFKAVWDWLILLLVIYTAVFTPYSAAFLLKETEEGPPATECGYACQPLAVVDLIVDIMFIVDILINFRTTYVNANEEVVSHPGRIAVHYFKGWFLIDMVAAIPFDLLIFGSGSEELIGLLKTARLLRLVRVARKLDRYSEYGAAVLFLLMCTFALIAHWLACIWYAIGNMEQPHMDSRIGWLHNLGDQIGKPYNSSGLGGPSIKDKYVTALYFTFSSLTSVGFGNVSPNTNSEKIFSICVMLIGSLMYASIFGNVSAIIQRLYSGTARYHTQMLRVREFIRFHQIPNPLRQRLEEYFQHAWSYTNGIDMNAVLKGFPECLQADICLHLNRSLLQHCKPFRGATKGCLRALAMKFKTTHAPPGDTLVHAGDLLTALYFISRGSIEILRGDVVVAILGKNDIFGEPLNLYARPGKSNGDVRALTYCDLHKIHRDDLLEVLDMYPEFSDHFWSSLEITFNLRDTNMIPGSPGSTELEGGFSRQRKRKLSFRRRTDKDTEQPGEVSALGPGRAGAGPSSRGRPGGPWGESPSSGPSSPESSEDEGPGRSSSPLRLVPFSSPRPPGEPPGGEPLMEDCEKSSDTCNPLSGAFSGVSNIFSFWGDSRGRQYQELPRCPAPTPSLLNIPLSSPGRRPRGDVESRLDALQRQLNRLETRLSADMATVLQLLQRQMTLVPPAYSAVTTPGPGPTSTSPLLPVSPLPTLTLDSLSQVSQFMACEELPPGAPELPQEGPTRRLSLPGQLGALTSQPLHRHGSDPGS

SMILES | hERG current change (%, negative = inhibition) at 1uM [%]
COc1ccc(CN(C(=O)CN2C(=O)C(C)Oc3ccccc32)C2CCCC2)c(OC)c1 (centres unmarked) | -0.0656
CC(C)Cc1nnc(NC(=O)C23CC4CC(CC(C4)C2)C3)s1 | 13.8
COc1cc(=O)n(C)c2c(OCC3OC(C)(C)OC3(C)C)cccc12 (centres unmarked) | 6.93
CCC1CCCCN1C(=O)CCS(=O)(=O)c1ccccc1 (centres unmarked) | 11.2
OC(COc1ccc(OCC(O)CN2CCN(Cc3ccccc3)CC2)cc1)CN1CCN(Cc2ccccc2)CC1 (centres unmarked) | 6.14
O=C(Cc1cn2ccsc2n1)Nc1nc2c(s1)CN(Cc1ccccc1)CC2 | 3.55
O=C(Nc1ccc(Nc2ccccc2)cc1)c1ccccc1F | 15.1
CCOC(=O)C(=CNc1ccc(C(F)(F)F)cc1Cl)C(=O)OCC | 9.93
CN(C)S(=O)(=O)c1cc([N+](=O)[O-])ccc1N1CCCCCC1 | 9.36
CC(C(=O)Nc1ccc2c(c1)OCO2)N1CCN(C)CC1.O=C(O)C(=O)O (centres unmarked) | 14.8
COC(=O)C(Cc1c[nH]c2ccccc12)N1CCS(=O)(=O)CC1 (centres unmarked) | 10.3
O=C(O)c1nccnc1C(=O)Nc1ccc(Cl)cn1 | 14.6
O=C(O)CCSc1nnc(CNc2ccc(Cl)cc2)n1Cc1ccccc1 | 4.32
CCCNC(=O)CCCCn1c(=S)[nH]c2c([nH]c3ccc(OC)cc32)c1=O | 10.3
COc1ccc([C@@H]2[C@@H]3C(=O)N(C(C)(C)C)C(=O)[C@@H]3[C@]3(Cc4ccccc4)C(=O)N(c4ccc(Br)cc4)C(=O)N23)cc1 | 9.56
COc1ccc(NC(=S)NCCCCCC(=O)C[N+](=O)[O-])cc1 | 12.5
CC(Nc1nc2ncn(Cc3ccccc3)c2c(=O)[nH]1)C(=O)O (centres unmarked) | 10.1
CN(C)C(=O)c1cccn1-c1ncc(C(F)(F)F)cc1Cl | 7
O=C(CCNC(=O)c1ccc(Br)cc1)OCc1ccccc1Cl | -3.72
O=C(CSc1ccccc1)NCC1(N2CCOCC2)CCCCC1 | 0.32
COc1ccc(S(=O)(=O)N=Nc2c(O)[nH]c3ccccc23)cc1 | 17.7
Cc1ccccc1OCCC(=O)OCC(=O)NC(=O)c1ccccc1 | 14.8

SMILES | hERG current change (%, negative = inhibition) at 1uM [%]
Cc1cc(-c2ccccc2)n(-c2ccccc2)n1 | 12.1
CSC(=NS(=O)(=O)c1ccc(C)cc1)SC | 5.47
COc1ccc(O)c(/C=N/N=C/c2cccc([N+](=O)[O-])c2)c1 | 12.8
Cc1cc(=O)n2c3ccccc3n(CC(O)CN3CCCC3)c2c1C#N (centres unmarked) | -11.5
CN(C)N1C(N)=C(C#N)C(c2ccc3c(c2)OCO3)C2=C1CC(C)(C)CC2=O (centres unmarked) | 11.8
CNCC1(c2ccccc2)CCCC1.Cl | 17.8
O=C(O)/C=C/c1cnc2ccccc2n1 | 15
CC(C)(C)c1cc(C(=O)NN)n(Cc2ccc(Cl)cc2Cl)n1 | 16.3
Nc1ccc(S(=O)(=O)N2CCOCCOCCOCCOCCOCC2)cc1 | 13.3
Cc1cc(Cl)ccc1NS(=O)(=O)c1c(C)[nH]c(=O)[nH]c1=O | 8.25
Cn1c(=O)c2cc(S(=O)(=O)NC(C(=O)Nc3cccnc3)c3ccccc3)ccc2n(C)c1=O (centres unmarked) | 3.7
c1csc(C2Nc3ccccc3-c3nc4ccccc4n32)c1 (centres unmarked) | 0.297
CC(C)N1CCC2(CC1)N=C(c1ccc3c(c1)OCO3)CC(c1cc(Cl)ccc1O)N2 (centres unmarked) | -36.6
O=C(O[C@@H]1OC2COC(=O)c3cc(O)c(O)c(O)c3-c3c(cc(O)c(O)c3O)C(=O)O[C@@H]([C@H]1O)[C@@H]2O)c1cc(O)c(O)c(O)c1 | 9.41
COc1ccc(NC(=O)N(Cc2ccc(C)cc2)Cc2cccnc2)c(OC)c1 | -0.158
Oc1cccc2nc3ccccc3nc12 | 11.9
C=CCn1c(-c2ccncc2)n[nH]c1=S | 14.5
Cc1ccc(-n2ncc3c2CCCC3NC(=O)CCc2cnn(C)c2)cc1C (centres unmarked) | 1.42
COCCCNC(=O)c1ccccc1Sc1ccc(NC(C)=O)nc1 | 2.68
Cc1c(Cc2ccccc2)c(=O)oc2c(C)c(OCc3nn[nH]n3)ccc12 | 14.2
CC(C)Oc1ccc(Br)cc1/C=N\NC(N)=S | 6.85
Cc1ccc(C(=O)CC(=O)COc2ccc(Cl)cc2)cc1 | 7.1

Reference: paper PMC4336329 (PLoS ONE, 2015)
